Experimental data published in paper PMC4336329 (PLoS ONE, 2015).
The whole screen tested about 310,000 compounds, of which about 14,000 (4.5%) showed an effect of 50% or more. The effect is printed as a negative number. The list shows a part of the results.

biological target: human ether-à-go-go-related gene (hERG) potassium channel (human, UniProt Q12809); assay: primary screen, population patch clamp on CHO cells stably expressing hERG
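Also: peak tail current of the secondary pulse compared with the same well before compound.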

human ether-à-go-go-related gene (hERG) potassium channel, sequence (Q12809 whole entry, looked up): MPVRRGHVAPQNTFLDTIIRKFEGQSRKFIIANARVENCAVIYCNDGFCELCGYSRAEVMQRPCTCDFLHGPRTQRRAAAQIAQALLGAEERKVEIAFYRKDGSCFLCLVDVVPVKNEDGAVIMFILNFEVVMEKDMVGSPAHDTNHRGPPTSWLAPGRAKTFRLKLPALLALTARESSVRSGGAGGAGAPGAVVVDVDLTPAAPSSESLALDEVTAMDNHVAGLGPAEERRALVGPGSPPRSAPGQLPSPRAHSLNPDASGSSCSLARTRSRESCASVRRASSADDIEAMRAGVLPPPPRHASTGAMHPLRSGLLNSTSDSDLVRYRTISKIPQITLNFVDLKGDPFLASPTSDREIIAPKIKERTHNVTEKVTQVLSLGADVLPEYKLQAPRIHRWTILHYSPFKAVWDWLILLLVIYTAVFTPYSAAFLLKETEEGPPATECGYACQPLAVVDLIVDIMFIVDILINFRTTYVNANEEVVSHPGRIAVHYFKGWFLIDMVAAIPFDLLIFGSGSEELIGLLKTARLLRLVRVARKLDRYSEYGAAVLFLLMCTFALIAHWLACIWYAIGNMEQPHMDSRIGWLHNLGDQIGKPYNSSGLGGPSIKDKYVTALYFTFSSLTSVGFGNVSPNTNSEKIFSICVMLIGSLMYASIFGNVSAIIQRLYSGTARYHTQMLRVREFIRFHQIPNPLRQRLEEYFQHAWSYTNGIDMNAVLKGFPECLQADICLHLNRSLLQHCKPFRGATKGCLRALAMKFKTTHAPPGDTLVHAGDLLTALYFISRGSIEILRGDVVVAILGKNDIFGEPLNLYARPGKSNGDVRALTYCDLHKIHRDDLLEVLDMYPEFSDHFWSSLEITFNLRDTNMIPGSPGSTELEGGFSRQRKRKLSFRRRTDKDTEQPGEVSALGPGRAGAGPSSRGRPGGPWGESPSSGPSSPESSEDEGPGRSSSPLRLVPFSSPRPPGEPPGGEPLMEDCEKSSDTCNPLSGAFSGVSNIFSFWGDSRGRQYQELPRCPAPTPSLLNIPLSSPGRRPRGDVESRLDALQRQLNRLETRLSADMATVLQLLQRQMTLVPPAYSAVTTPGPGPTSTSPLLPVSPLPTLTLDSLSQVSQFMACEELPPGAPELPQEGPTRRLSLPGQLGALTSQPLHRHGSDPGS

| Compound | hERG current change (%, negative = inhibition) at 10uM [%] |
| --- | --- |
| COc1ccc(-n2ncc3c(NCCN4CCOCC4)ncnc32)cc1 | -0.24 |
| CC(C)C[C@H](NC(=O)c1nc[nH]c1C(=O)N[C@@H](CCCCNC(=O)OC(C)(C)C)C(=O)OC(C)(C)C)C(=O)OCc1ccccc1 | 6.37 |
| COc1cc(/C=N/NC(=O)c2cccc3ccccc23)cc(OC)c1OC | 16.2 |
| O=C(CSc1nc(-c2ccc(F)cc2)cc(C(F)(F)F)n1)NCc1ccco1 | 10.2 |
| CCC(Oc1ccccc1)C(=O)Nc1ccc(C)c(S(=O)(=O)N2CCOCC2)c1 (stereo not drawn) | -18 |
| CCS(=O)(=O)N1CCCC(C(=O)NCc2ccc(C)cc2)C1 (stereo not drawn) | 4.45 |
| O=C(c1ccco1)N1CCCN(Cc2nc(-c3cccs3)no2)CC1 | -22.1 |
| CC(C)Oc1ccc(-c2cc(C(=O)NCCN3CCOCC3)c3ccccc3n2)cc1 | -12.2 |
| O=C(CN(Cc1ccccc1)C(=O)CSc1nnc(COc2ccccc2)o1)NC1CCCC1 | -8.74 |
| O=C(CCCC(=O)NCc1ccc(F)cc1)NCc1ccc(F)cc1 | -39 |
| CCOC(=O)c1cc(C#N)c(SCc2ccc(C#N)cc2)nc1C | 3.29 |
| NS(=O)(=O)c1ccc(CCNC(=O)COC(=O)/C=C/c2ccccc2Cl)cc1 | -6.14 |
| CN(/N=C/c1ccc2c(c1)OCO2)c1nc(N2CCOCC2)nc(N2CCOCC2)n1 | 12.1 |
| COc1ccc(S(=O)(=O)NCCSCc2ccco2)cc1C | -20.8 |
| COc1ccc(C(=O)O)cc1S(=O)(=O)NC(C)C12CC3CC(CC(C3)C1)C2 (stereo not drawn) | 1.27 |
| O=C(NCc1ccccc1)N1CCN(c2ccccc2)CC1 | 5.69 |
| NC1=NS(=O)(=O)NC1c1cccc(F)c1 (stereo not drawn) | 14.5 |
| COc1ccc(-c2cc(=O)oc3cc(OCC(=O)N(C)C4CCS(=O)(=O)C4)ccc23)cc1 (stereo not drawn) | -27.3 |
| CCOc1ccc(N(CC(=O)Nc2ccc(OC)cc2)S(=O)(=O)c2c(C)noc2C)cc1 | 4.62 |
| O=C(Nn1c(-c2ccccc2)nc2ccccc2c1=O)C1CCC1 | -6.88 |
| O=C1NC(=O)C2(COC(c3ccncc3)OC2)S1 (stereo not drawn) | 12.9 |
| Cl.O=C(CC1=NC2(CCCC2)Cc2ccccc21)N1CCOCC1 | -15 |
| Cc1ccccc1Nc1ccc(S(=O)(=O)N2CCOCC2)cc1[N+](=O)[O-] | -8.45 |
| C[N+]1(C)C2CCC1CC(OC(=O)C(CO)c1ccccc1)C2.[I-] (stereo not drawn) | 18.3 |
| COc1cc(OC)cc(C(=O)Nc2ccc3c(c2)CCCN3C(=O)c2cccs2)c1 | -2.41 |
| CC1(C)CN=C(N(Cc2ccccc2)C(=O)Nc2ccccc2)S1 | 5.38 |
| Cc1oc(-c2ccccc2)cc1C(=O)NCc1ccncc1 | 4.82 |

| Compound | hERG current change (%, negative = inhibition) at 10uM [%] |
| --- | --- |
| COc1ccc(NC2CCCN(C(=O)CCOc3ccccc3)C2)cc1 (stereo not drawn) | -17.1 |
| COc1cc(CNCc2cccc(OC)c2OC)cc(OC)c1.O=C(O)C(=O)O | 6.42 |
| O=C(COc1ccc(C(=O)c2ccc(F)cc2)cc1)NCc1ccc(F)cc1 | 4.49 |
| Cc1ccc(S(=O)(=O)c2ccc(Oc3ccccc3)cc2)cc1 | 17.3 |
| COc1ccc(CN2CCNC(=O)C2CC(=O)NCCCC2CCCC2)c(C)c1C (stereo not drawn) | 5.39 |
| Cc1cccc(NC(=O)CSc2nnc3ccc(-c4ccccn4)nn23)c1 | -2.59 |
| COC(=O)CSc1snnc1-c1ccc(Cl)cc1Cl | -2.62 |
| COC(=O)NC(NS(=O)(=O)c1ccccc1)(C(=O)OC)C(F)(F)F (stereo not drawn) | 3.94 |
| COc1ccccc1NS(=O)(=O)c1cc(C(=O)NCc2ccncc2)ccc1C | -28.8 |
| C=CCn1c(=N)c(C(=O)NCCCOC)cc2c(=O)n3cc(C)ccc3nc21 | -57.3 |
| COc1cc(OC)cc(C(=O)OCC(=O)c2cc(C)n(CC3CCCO3)c2C)c1 (stereo not drawn) | -39 |
| COc1ccc(-c2[nH]c(-c3ccc(F)cc3)nc2SCC(=O)NCc2ccco2)cc1OC | 18.8 |
| Brc1ccc(Sc2cnc3ccccc3n2)cc1 | 5.28 |
| COc1ccc([C@H]2CC(=O)C=C(c3cccc(OC(F)(F)F)c3)C2)cc1 | 5.2 |
| OCC1(Cc2ccc(Cl)cc2)CCN(Cc2ccccc2F)CC1 | -69.2 |
| CCOC(=O)Nc1cccc(NC(=O)c2ccccc2F)c1 | 7.84 |
| CCCN(CC(=O)Nc1cc(Cl)ccc1Cl)C(=O)c1ccc(N2CCCC2=O)cc1 | -33 |
| O=C(Nc1cc2c3c(c1)CC(=O)N3CCC2)c1ccc(Br)o1 | -34.3 |
| O=C(NC1CC(=O)N(c2ccccc2)C1)C(=O)c1c[nH]c2ccccc12 (stereo not drawn) | -11.1 |
| S=C(Nc1ccc(Nc2ccccc2)cc1)N1CCN(c2ncccn2)CC1 | 19.9 |
| COc1ccc(/C=C(/NC(=O)c2cccc([N+](=O)[O-])c2)C(=O)O)cc1OC | 13.2 |
| CCN1CCN(S(=O)(=O)c2cc(OC)c(Cl)cc2OC)CC1 | 2.38 |
| O=C(OCc1nc2ccccc2s1)C1CCN(C2=NS(=O)(=O)c3ccccc32)CC1 | -46.1 |
| Cc1ccc(C(=O)N/C(=C/c2ccco2)C(=O)OCN2C(=O)c3ccccc3C2=O)cc1 | -34.8 |
| C=C(C)C(=O)Oc1ccc(N2C(=O)CCC2=O)cc1 | 7.72 |
| Cc1ccc(S(=O)(=O)N2CCCC2CNC(=O)c2ccccc2)cc1 (stereo not drawn) | -9.34 |
| CC(=O)N1C=CN(C(C)=O)C(c2cn(C)c3ccccc23)C1c1cn(C)c2ccccc12 (stereo not drawn) | -15.5 |
